Biological target: full-length recombinant NH-terminal GST tagged human PDE1B enzyme (Homo sapiens (Human), UniProt Q01064)
Assay: PDE1B inhibitory assay (IMAP TR-FRET)

PDE1B pIC50 (negative log of half-maximal molar inhibitory concentration, 200 nM FAM-cAMP, Calmodulin, CaCl2)	IC50 [nM]	SMILES
6-7		C[C@@H]1CN(Cc2cnc3c(c2)c2ncnn2c(=O)n3Cc2cccc(I)c2)C[C@H](C)O1 [Example 284]
	100 to 1000	COc1ccc(Cn2c(=O)n3ncnc3c3cc(CN4CCOCC4(C)C)cnc32)cc1 [Example 222]
